Test results reported in the supplement of paper PMC12217912.
The other results are listed elsewhere or left out. The full chains were built here from the parent and the listed change. Values near 0.05 are background.

B1: TEV protease; numbered along this chain (parent)
chain: MGESLFKGPRDYNPISSSICHLTNESDGHTTSLYGIGFGPFIITNKHLFRRNNGTLVVQSLHGVFKVKDTTTLQQHLVDGRDMIIIRMPKDFPPFPQKLKFREPQREERICLVTTNFQTKSMSSMVSDTSCTFPSGDGIFWKHWIQTKDGQCGSPLVSTRDGFIVGIHSASNFTNTNNYFTSVPKNFMELLTNQEAQQWVSGWRLNADSVLWGGHKVFMVKPEEPFQPVKEATQL

Variants of: B1
Test: raw area under fraction-flipped curve 0-4 h after induction (AUC4h, not background-subtracted), DNA-recorder readout of cleavage of the substrate (dimensionless); higher = more cleavage of the substrate by the protease variant
Conditions: temperature: 34 °C; time window: 0-4 h after rhamnose induction
Procedure: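 In vivo DNA recorder in E. coli TOP10(DE3) ΔrhaA at 34 °C. Each TEVp single-site mutant (parent TEVp 0) is paired with a single-site variant of the 7-mer TEVs (canonical ENLYFQ|S). The substrate sits between flexible linkers in a Bxb1-sfGFP-TEVs-SsrA fusion, so cleavage stabilises Bxb1 and speeds flipping of a recombination array, read by NGS. The value is the raw area under the fraction-flipped curve over 0-4 h after rhamnose induction (AUC4h), with ≥20 reads per time point. It is not background-subtracted; inactive controls average about 0.047.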
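Also: Bxb1 expression induced with 0.2% (w/v) L-rhamnose at OD600 near 0.5, cultures sampled hourly, flipped fraction per protease–substrate barcode pair counted by paired-end Illumina sequencing.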

Row | Variant | area with substrate ENLYFQA | area with substrate ENLYFQC | area with substrate ENLYFQD | area with substrate ENLYFQE | area with substrate ENLYFQF | area with substrate ENLYFQG | area with substrate ENLYFQI | area with substrate ENLYFQK | area with substrate ENLYFQL | area with substrate ENLYFQM | area with substrate ENLYFQN | area with substrate ENLYFQP | area with substrate ENLYFQQ | area with substrate ENLYFQR | area with substrate ENLYFQS | area with substrate ENLYFQT | area with substrate ENLYFQW | area with substrate ENLYFQH | area with substrate ENLYFQV | area with substrate ENLYFQY
1 | D208T | 0.0813 | 0.0752 | 0.0657 | 0.0612 | 0.0618 | 0.0849 | 0.0636 | 0.0568 | 0.0579 | 0.0605 | 0.0701 | 0.0605 | 0.0736 | 0.0806 | 0.0785 | 0.0614 | 0.0694 | – | – | –
2 | D208W | 0.0538 | 0.0631 | 0.0691 | – | – | 0.109 | 0.0641 | 0.0658 | 0.0563 | 0.0597 | 0.0597 | – | – | 0.0562 | 0.0677 | 0.114 | 0.0617 | 0.066 | 0.0628 | 0.064
3 | D208Y | 0.0609 | 0.0517 | 0.0618 | 0.0687 | 0.0587 | – | 0.0439 | 0.0571 | 0.0559 | 0.0763 | 0.0551 | 0.053 | 0.0507 | 0.0618 | 0.0732 | 0.0572 | 0.0532 | 0.05 | 0.0512 | 0.0607
4 | W212E | 0.112 | 0.121 | – | 0.0381 | – | 0.0659 | 0.0728 | 0.0787 | – | 0.0537 | 0.0567 | – | – | 0.0707 | 0.073 | 0.0591 | 0.0514 | 0.074 | 0.0477 | 0.0644
5 | W212V | 0.103 | 0.132 | 0.0387 | 0.0529 | 0.0787 | 0.115 | – | – | 0.0564 | – | 0.0103 | – | 0.0805 | 0.064 | 0.118 | 0.0708 | 0.0581 | – | 0.058 | –
6 | G214C | 0.0817 | – | – | 0.0495 | – | – | – | 0.0707 | – | – | 0.0617 | – | – | – | 0.0998 | – | – | – | – | –
7 | H215Q | 0.0702 | 0.0831 | – | – | 0.0497 | – | 0.0577 | 0.0352 | 0.0618 | 0.0539 | 0.0529 | – | 0.0567 | – | 0.0694 | 0.0666 | 0.0622 | 0.0542 | 0.0581 | 0.0541
8 | H215V | 0.102 | 0.0506 | – | – | 0.0628 | – | 0.0599 | 0.059 | 0.0463 | – | – | – | – | 0.0589 | 0.071 | 0.057 | – | – | – | –
9 | K216A | 0.0677 | 0.126 | – | – | – | 0.0823 | – | 0.0612 | 0.0599 | – | – | – | – | – | 0.09 | 0.0448 | – | – | – | –
10 | K216P | 0.0845 | – | 0.0487 | – | 0.0752 | – | – | – | 0.0623 | – | – | – | – | 0.0613 | 0.0891 | – | 0.0682 | – | – | 0.0524
11 | V217W | 0.057 | 0.0673 | – | – | – | 0.0427 | 0.0509 | – | 0.0543 | 0.0449 | 0.0699 | 0.0588 | – | 0.0611 | 0.0616 | – | – | 0.0578 | 0.0474 | –
12 | M219A | 0.114 | 0.117 | – | – | 0.0576 | – | 0.0489 | – | 0.0613 | 0.0508 | – | 0.0265 | – | 0.068 | 0.0967 | 0.0489 | – | 0.0767 | 0.0589 | 0.0586
13 | M219F | 0.112 | 0.12 | – | 0.1 | – | 0.151 | 0.0534 | – | 0.0549 | 0.123 | 0.11 | – | – | – | 0.117 | 0.0778 | – | 0.082 | – | –
14 | V220Q | 0.119 | 0.112 | 0.0838 | – | – | 0.102 | 0.0654 | 0.0573 | 0.0696 | – | 0.09 | 0.0622 | 0.0681 | 0.0691 | 0.111 | 0.0712 | 0.0727 | 0.0588 | 0.0654 | 0.0936
